Reference: PubChem BioAssay AID1346428 (National Center for Advancing Translational Sciences (NCATS), 2018)
“And” between values parts separate entries of the source, which are not always exact repeats. Equal entries are not always repeated. Hit rate of the full screen: of about 48,000 compounds, about 1,200 (2.5%) were called active. About 2% were inconclusive and are not listed.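 Rule for the calls: active = activation of at least 60% and not above a set upper limit (about 1 call in 100 departs from these limits); inconclusive = activation of 40% to 60%, or above that upper limit; inactive = activation under 40%.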 The list shows a part of the results.

Molecular target: Probable G-protein coupled receptor 32 (Homo sapiens) (UniProt O75388)
Experiment: qHTS for Agonists of Human Resolvin D1 Receptor DRV1; note: 0% is about no effect
Settings: CHO-K1 GPR32 beta-arrestin PathHunter luminescence, 90 min; at 76.9 µM; active compounds read high; zero percent set by DMSO-only wells
Method in brief: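 Agonism was scored as beta-arrestin recruitment to ProLink-fused GPR32 in stably transfected CHO-K1 cells, giving a chemiluminescent beta-Gal signal; compounds were incubated 90 min at 37 °C.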

Chain of UniProt O75388 (O75388 whole entry, looked up): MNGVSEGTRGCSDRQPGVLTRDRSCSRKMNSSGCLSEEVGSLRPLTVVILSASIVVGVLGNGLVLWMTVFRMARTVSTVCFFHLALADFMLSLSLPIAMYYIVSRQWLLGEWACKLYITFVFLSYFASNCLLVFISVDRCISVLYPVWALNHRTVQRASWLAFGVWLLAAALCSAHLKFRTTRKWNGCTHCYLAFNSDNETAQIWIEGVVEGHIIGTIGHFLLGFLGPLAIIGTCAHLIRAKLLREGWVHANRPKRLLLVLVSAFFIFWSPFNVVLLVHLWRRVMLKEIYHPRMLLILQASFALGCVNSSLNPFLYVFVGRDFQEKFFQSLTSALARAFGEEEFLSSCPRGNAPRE

activation, active:
Cc1cccc(CNC(=O)c2ccc(-c3nc(CS(=O)(=O)c4ccccc4)c(C)o3)cc2)c1 79.5%
CN(C)c1ccc(-c2nc(-c3ccccn3)no2)cc1[N+](=O)[O-] 75.8%
Cc1ccc2c(CNCc3cccs3)c(C(=O)O)n(Cc3ccc(F)cc3)c2c1 91.9%
Cc1nc(-c2ccc(F)cc2)sc1CCNC(=O)c1ccccc1 62.2%

activation, inactive:
Cc1ccc(CCNC(=O)NCc2noc3ccc(C)cc23)cc1 -2.56%
Cn1ncc(C(=O)N2CCN(c3ccccc3)CC2)c1C1CCN(C(=O)OC(C)(C)C)CC1 -8.51%
O=C(O)CCCc1ccccc1 6.7%
Cc1cc(C)n2nc(CNC(=O)c3cccc(Cl)c3)nc2n1 -7.99%
CSc1ccc(CCNC(=O)C(C)n2nc(C)c3c(C)n(-c4ccccc4)nc3c2=O)cc1 (centres undefined) -15.6%
Cc1ccc(CCNC(=O)Cn2nc(C)c3c(C)n(-c4ccc(C)cc4)nc3c2=O)cc1 -14.1%
Cc1ccc(NC(=O)COc2ccc3oc4c(c3c2)CCCC4)c(C)c1 23.5%
Cc1cc(=O)[nH]c2nnc(SCC(=O)Nc3cc(C(F)(F)F)ccc3Cl)n12 37.9%
COC(=O)c1ccc(Cn2c(=O)cc(C)c3c(C)nn(C)c32)cc1 32.4%
Cc1ccc2c(=O)cc(C(=O)Nc3sc4c(c3C(=O)NCc3ccco3)CCCC4)oc2c1C -15%
CCc1ccc(CNC(=O)c2nn(-c3ccc(C)c(C)c3)nc2CO)cc1 36.6%
CCC(C)NC(=O)Cn1ncc2c(C)n(Cc3ccc(F)cc3)c(C)c2c1=O (centres undefined) 1.21%
CC(=O)CSc1nc(-c2ccccc2)[nH]c1S(=O)(=O)c1ccc(C)cc1 1.92%
CCOc1ccc(Sc2cc(C(=O)NCc3ccc(F)cc3)c3ccccc3n2)cc1 22.4%
CN(C)c1ccc(C(CNC(=O)COc2ccccc2)N2CCOCC2)cc1 (centres undefined) -9.29%
CCOc1ccc(NC(=O)Nc2c(C)n(C)n(-c3ccccc3)c2=O)cc1 -1.69%
CCN(CC)S(=O)(=O)c1ccc2c(c1)N(CC(=O)NCc1ccccc1)C(=O)CS2 -11.4%
Cn1ncc2c(NCc3cccc(Cl)c3)ncnc21 8.4%
COc1cc(Cl)c(C)cc1NC(=O)CSc1cc(=O)n(C)c2cc(Cl)ccc12 -8.6%
Cc1cnc(NC(=O)C2=C(O)c3ccccc3S(=O)(=O)N2C)s1 -20.3% and -10.5%
O=C(CN1C(=O)CCSc2ccc(S(=O)(=O)N3CCCC3)cc21)Nc1cccc(Cl)c1 -21.3%
Cc1c(Cl)cccc1NC(=O)N1CCN(Cc2cc(=O)n3nc(-c4ccccc4F)sc3n2)CC1 0.923%
Cc1nn(C)c2c1c(-c1ccccc1)cc(=O)n2Cc1ccccc1F -0.275%
CCCS(=O)(=O)N1CCC(N2CCN(Cc3ccc(C)cc3)C(=O)C2=O)CC1 -5.27%
Cc1ccc(-c2noc(CCC(=O)Nc3ccc(F)cc3Cl)n2)cc1 -1.35%
COc1ccc(NC(=O)c2cccc(N3CCCS3(=O)=O)c2)cc1 43.2%
NC(=O)CSc1ncc2c(n1)-c1ccccc1N(Cc1ccccc1)S2(=O)=O -3.58%
Cc1cc(C)c2c(=O)cc(C(=O)NCCc3ccc(S(N)(=O)=O)cc3)oc2c1 11.1%
COc1ccc(NS(=O)(=O)c2ccc3c(c2)CCN3C(=O)C2CC2)cc1OC 20.9%
Cc1ccccc1CNC(=O)C(=O)NCC(c1ccco1)S(=O)(=O)c1ccc(F)cc1 (centres undefined) -8.45%
COc1cccc(CNC(=O)Cn2c(=O)c3cccn3c3ccc(F)cc32)c1OC -12.8%
CCN1CCOC(=O)C1CC(=O)Nc1ccccc1C(F)(F)F (centres undefined) 29.1%
Cc1cccc(NC(=O)C2CCC(CNS(=O)(=O)c3ccc4c(c3)CCCC(=O)N4)CC2)c1C (centres undefined) -11%
CCCN(C(=O)C1CCN(S(=O)(=O)c2c(C)noc2/C=C/c2ccc(C)cc2)CC1)c1ccccc1F -18.3%
CCOCCCNC(=O)c1c(NC(=O)Cc2coc3c(C)c(C)ccc23)sc2c1CCC2 -16.7%
Cc1cc(C)cc(N(C)S(=O)(=O)c2nnc(NC(=O)COc3ccc(C)c(C)c3)s2)c1 12.1%
CC(=O)c1ccc(NC(=O)c2cccc(NC(=O)N3CCSc4ncccc43)c2)cc1 -0.577%
COc1cc(OC)c(NC(=O)COc2ccccc2-c2nnc(-c3ccccc3)o2)cc1Cl 21.4%
CCCN(Cc1cc2cc(C)ccc2[nH]c1=O)C(=O)c1cccc(Cl)c1 -12.5%
COC(=O)c1cc(C)nc2c1c(=O)nc(SCc1cc(C)ccc1C)n2C1CC1 2.49%
CCCCCCCCCCCCCCCCCCO -12.7%
Cc1cccc(C(=O)NC2(C(F)(F)F)N=C(c3ccccc3)N(Cc3ccccc3)C2=O)c1 (centres undefined) -9.42%
Cc1c(Cl)cccc1NC(=O)CN1C(=O)c2ccccc2Sc2ncccc21 2.32%
CCc1ccccc1Nc1nn2c(=O)c3ccc(C(=O)NCCc4ccccc4)cc3nc2s1 25.1%
O=C(CSc1nc2ccccc2n1CC(=O)Nc1ccc(F)cc1F)Nc1ccc(F)cc1 -3.9%
CC(=O)N1CCc2c(sc3c2c(=O)n(-c2ccccc2Cl)c(=O)n3C)C1 -18.3%
Cc1ccc(-c2c(CN3CCN(c4cc(Cl)ccc4C)CC3)csc2C)cc1 -21.8%
COCCCN1CCc2nc(SCC(=O)Nc3ccc(C)c(Cl)c3)[nH]c(=O)c2C1 -5.78%
CCn1c(=O)c2cc(C(=O)NCCc3cccc(C)c3)sc2c2ccccc21 -1.3%
CCOc1ccc2c(c1)c(=O)c(S(=O)(=O)c1ccc(C)cc1)cn2CC(=O)Nc1ccc(C)cc1 -5.67%
COc1ccc(-n2c(SCc3nc(-c4ccc(C)cc4)no3)nnc2-c2ccncc2)cc1 0.748%
Cc1ccc(Nc2cc(C(=O)NC3CCCC3)c3ccccc3n2)cc1C 45.7%
Nc1ncc(S(=O)(=O)NCc2ccccc2F)cn1 -0.573%
COc1ccccc1N1CCN(C(=O)C2CCN(S(=O)(=O)c3cccc4nonc34)CC2)CC1 -21.5%
CC(C)COc1ccc(C(=O)NCC2OCCc3ccccc32)cc1 (centres undefined) 40.5%
CCOC(=O)c1c(C)n(-c2ccccc2)c2ccc(OC(=O)c3ccccc3Cl)cc12 -7.98%
CCOc1ccc(CCNC(=O)C2CCCN(c3nnc(C)c4c(C)n(-c5ccccc5)nc34)C2)cc1 (centres undefined) -0.259%
NC(=O)c1c(NC(=O)c2noc3c2CCCC3)sc2c1CCCC2 4.02%
CCOc1cc2[nH]c(=O)n(CCC(=O)N3CCN(c4cccc(Cl)c4)CC3)c(=O)c2cc1OCC -1.92%
COC(=O)c1cc(NC(=O)CCS(=O)(=O)c2cc(Br)cc3c2N(C(=O)C2CC2)CC3)cc(C(=O)OC)c1 -4.37%
COc1ccc2oc(=O)c(C(=O)NCCc3c(C)[nH]c4c(C)cccc34)cc2c1 -13.1%
Cc1ccccc1C(=O)Nc1ccc(NC(=O)c2cccs2)cc1 1.94%
CCn1c2ccccc2c2cc(NC(=O)COc3cc(C)c(Cl)c(C)c3)ccc21 -24%
CCOC(=O)Cn1nc(C)c(NC(=O)COc2ccc(OC)cc2)c1C -1.2%
COc1ccc(C(=O)NCC(c2ccco2)S(=O)(=O)c2ccccc2)cc1 (centres undefined) -6.82%
CCOC(=O)c1c(C)oc2nc(C)nc(N3CCN(c4ccc(C)cc4C)CC3)c12 -1.72%
CC1(C)O[C@@H]2C[C@H]3[C@@H]4CCC5=CC(=O)C=C[C@]5(C)[C@@]4(F)[C@@H](O)C[C@]3(C)[C@]2(C(=O)CO)O1 -27.8%
CC(=O)N1CCCc2cc(S(=O)(=O)N3CCC(C(=O)NCc4ccc(F)cc4)CC3)ccc21 8.39%
Cc1ccc(-c2nnc(Nc3ccc(OCC(N)=O)cc3)c3ccccc23)cc1S(=O)(=O)NCC1CCCO1 (centres undefined) -14.9%
O=C(CSc1n[nH]c(-c2ccccc2)n1)N1CCN(c2ccc(F)cc2)CC1 -0.981%
Cc1noc(Cn2c(=O)c3ccccc3n(CC(=O)Nc3cc(Cl)ccc3C)c2=O)n1 -10.9%
CCOC(=O)c1[nH]c2ccccc2c1NC(=O)c1ccc(C)c(C)c1 34.6%
CCC(C(=O)NCCc1ccc(OC)c(OC)c1OC)n1nc(C)c2sc3ccccc3c2c1=O (centres undefined) -23.7%
Cc1ccc(CNC(=O)C2CCN(C(=O)N3CC(C)Oc4ccc(Cl)cc43)CC2)cc1 (centres undefined) -9.09%
CCOc1ccccc1NC(=O)CN1C(=O)CC(c2ccc(C)c(C)c2)=Nc2ccccc21 -5.74%
O=C(O)C(S)C(S)C(=O)O (centres undefined) -75.8%
Cc1ccc(-n2c(=O)c3c(cnn3C)n(CC(=O)Nc3cccc(Cl)c3)c2=O)cc1 -1.71%
Cc1cc(C)cc(NC(=O)C(C)N2Cc3ccccc3C2=O)c1 (centres undefined) -16.9%
Cc1ccc(C)c(N2CCN(CCCNC(=O)c3cnn(-c4cccc(Cl)c4)c3C3CCN(C(=O)OC(C)(C)C)CC3)CC2)c1 -18.1%
CCOc1ccc(NC(=O)c2ccc3c(=O)n4c(nc3c2)CCCCC4)cc1 -19.1%
